Assay results as given in the BET-seq Pho4 binding data (Le et al. 2018).
The list shows a part of the results. These are noisy estimates, calculated here from bound and input reads.

molecular target: T1, Pho4 (S. cerevisiae) (UniProt P07270); assay: relative binding free energy (BET-seq); higher = weaker binding; details: reference: library average
T1 sequence: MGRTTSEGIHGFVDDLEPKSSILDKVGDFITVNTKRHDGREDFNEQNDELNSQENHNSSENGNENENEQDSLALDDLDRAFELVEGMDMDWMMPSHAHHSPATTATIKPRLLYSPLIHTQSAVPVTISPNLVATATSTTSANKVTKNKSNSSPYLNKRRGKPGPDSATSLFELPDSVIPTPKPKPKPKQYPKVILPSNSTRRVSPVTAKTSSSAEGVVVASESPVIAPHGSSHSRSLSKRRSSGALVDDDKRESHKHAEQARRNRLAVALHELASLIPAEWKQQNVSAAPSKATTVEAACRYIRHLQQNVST

Sequence	relative binding free energy [kcal/mol]
TATATCACGTGTTATA	0
CTGGTCACGTGGTCTG	0.05
GCTTTCACGTGCTTGT	0.2
TTGCGCACGTGTTGGC	0.04
ATGTTCACGTGGTACA	0.18
GGGTTCACGTGCCTGT	0.2
TGGTTCACGTGCGCGT	0.17
ATTATCACGTGTTCTT	0.14
AGATTCACGTGTTATT	0.18
AGGCACACGTGTGCGG	-0.02
TGCTGCACGTGGGCAT	-0.22
GGAATCACGTGTAGAG	0.22
GTTAACACGTGTTGCG	-0.04
GAGGGCACGTGTGCGT	-0.01
ATGCTCACGTGTATTT	0.14
GGGTGCACGTGGCTTT	-0.09
TGTCACACGTGTGATA	0.23
ACTTACACGTGTGGAT	0.31
GTTGTCACGTGCAAGG	0.15
ATATTCACGTGGTATA	0.19
GGGGTCACGTGCAATT	0.19
AGGGGCACGTGGTGAT	-0.07
TTTAGCACGTGTTGAA	0.13

Sequence	relative binding free energy [kcal/mol]
ACTTTCACGTGATGTG	0.14
GGCTTCACGTGTGAAG	0.16
AGGGTCACGTGGACAG	-0.12
AGGAGCACGTGTGCAG	0.1
GTGTGCACGTGTCTAT	0.08
CATGTCACGTGCGGGC	0.16
TTGTGCACGTGTTAGA	-0.07
TTCTGCACGTGTGCGT	-0.02
AAGTACACGTGATGTA	0.15
TTTAGCACGTGGTAGG	-0.13
TTAGTCACGTGATTCT	0.23
GGTTTCACGTGCGAGC	0.4
ATATACACGTGCGGTT	0.08
GTCTTCACGTGTGGCG	0.38
GGTCGCACGTGGAGCG	0.01
CAAGTCACGTGGGAAG	0.1
AGATGCACGTGTTGCT	-0.05
ATTGGCACGTGTCAGA	-0.06
AAATGCACGTGAGGGG	0.18
TTTTTCACGTGATGAG	0.26
TGTGCCACGTGAGTAT	0.07
TGCGGCACGTGGCAAG	-0.25
AGTAGCACGTGTGTCT	-0.17

Sequence	relative binding free energy [kcal/mol]
ATTCTCACGTGAGTTT	0.31
GAGTTCACGTGGGCTA	0.17
GATTTCACGTGGTATA	0.29
CGGTGCACGTGAGCTT	0.25
TAGTTCACGTGGAGAT	0.18
CCGTACACGTGGGGTT	-0.15
TAGGTCACGTGGGCGC	-0.04
GGGTACACGTGGGGTA	0
GGAGTCACGTGGGTTG	0.01
GGCGTCACGTGATGGG	0.39
GCTTACACGTGTGGAG	0.28
TATAACACGTGACGGT	0.24
GGGTACACGTGCAAGG	0.04
TTGGGCACGTGGGTTC	-0.14
GTTTTCACGTGGCTAT	0.34
GAGGACACGTGTTAAG	0.23
CATTGCACGTGAGTTG	0.13
ATTTGCACGTGGGAGG	-0.1
GGGTCCACGTGATGTC	0.32
TTTTGCACGTGAGCGA	0.2
TCTGTCACGTGTGGAA	0.13
AAGAGCACGTGTGTAT	-0.12
TTCGCCACGTGTGGTG	-0.17

Sequence	relative binding free energy [kcal/mol]
AAGGTCACGTGACTGG	0.18
TGAGGCACGTGAATTA	0.19
TTGGTCACGTGGCGGT	-0.02
TCTTGCACGTGATATG	0.1
CGATTCACGTGGGTAG	0.11
CTTTACACGTGTGGTG	0.02
TAGATCACGTGTCGGT	0.18
ATTTGCACGTGTGGCT	0.07
ACAATCACGTGGGGGT	0.03
GTTTGCACGTGAGGTT	0.3
CTGGTCACGTGGAAGT	0.18
TGACTCACGTGTAGGT	0.18
GCGATCACGTGTTTGG	0.17
AATGCCACGTGGATGG	-0.03
GGGCTCACGTGATAGG	0.4
TATCTCACGTGTTGGC	0.2
TTTATCACGTGTTTGC	0.19
GTTAGCACGTGTCTTT	-0.08
ATTATCACGTGGAGGG	0.11
TATAACACGTGGTCTT	-0.02
GAATTCACGTGGGTGC	0.24
AGATTCACGTGGTACG	0.18
GAAGGCACGTGAGGTT	0.17

Sequence	relative binding free energy [kcal/mol]
GGGGCCACGTGGGTTC	-0.13
GGGGGCACGTGCTCAT	-0.09
TGGGCCACGTGTTCAG	0
TCAGGCACGTGTGGTA	-0.03
GGTTGCACGTGGTTTC	0.15
GTATACACGTGGGCTG	-0.19
CAAAACACGTGGGGGT	-0.03
GTGGTCACGTGTTCGT	0.27
GTTTGCACGTGGTTGA	0.06
GGATGCACGTGATGCT	0.11
CTTAGCACGTGAGCGG	-0.02
AGAATCACGTGGGGAG	-0.05
GATCACACGTGTTGGG	0.13
TTGTTCACGTGTAAAA	0.28
CAAGTCACGTGTATGG	0.02
AGAATCACGTGTGAGT	0.12
GATGACACGTGTTTTA	0.13
GATAACACGTGTTAGT	0.02
CGTGTCACGTGTTACT	0.09
TGATACACGTGGTGTC	-0.11
ATCGTCACGTGATGTA	0.23
GTAGGCACGTGTATTA	0.09
GTGTACACGTGGACGA	0.13
